PMC12136788
Some of the results follow.

T1: UNK ZnF1-6 (called full-length) (human, UniProt Q9C0B0 30-357)
T1 sequence: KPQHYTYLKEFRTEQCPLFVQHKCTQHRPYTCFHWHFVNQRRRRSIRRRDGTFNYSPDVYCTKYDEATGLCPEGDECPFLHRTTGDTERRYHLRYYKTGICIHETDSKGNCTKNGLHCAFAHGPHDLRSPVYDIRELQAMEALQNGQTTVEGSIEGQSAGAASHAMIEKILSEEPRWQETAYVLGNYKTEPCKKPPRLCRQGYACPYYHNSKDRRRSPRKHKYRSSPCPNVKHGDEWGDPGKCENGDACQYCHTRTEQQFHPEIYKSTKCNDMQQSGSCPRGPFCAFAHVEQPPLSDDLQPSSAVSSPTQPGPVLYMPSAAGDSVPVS

B1: chr2:73226876:73226918:+|3pUTR|ENSG00000135632|msi1_unk|FALSE|overlapping (ssRNA)
RNA: GGGAGUUCUACAGUCCGACGAUCAUCUUUAGGGUCUCCACAGACUAACAUUGAAGUCUUCCAGAAACCUCGAGGAGCUGGGCUAGAUACUUCGAGAGUAGCCCUGUCUUGUCCCCUCCUACCCCCAGAUUAGCACCACCCCUCCAACAGAGGAUUGAGCAUCA
B2: chr1:15430058:15430159:+|3pUTR|ENSG00000142634|msi1|total|mutant (ssRNA)
RNA: GGGAGUUCUACAGUCCGACGAUCCCUGGAAGCUACGCGGACUUGCAGAGGUUUUAUUUUUUGGCCUCCGAAUCUGCAGAAAUCCGGAGGCACCGAGCCCAGCGCAGCAGCCUCGGACCCGGAUUGCGUUUGCCUCCGCGGAUACAACAGAGGAUUGAGCAUCA
B3: ENSG00000139428:stop:overlap|stop_codon|ENSG00000139428|stop_codon|NA|stop_codon (ssRNA)
RNA: GGGAGUUCUACAGUCCGACGAUCUAUUACUAUUCUUAACACUUACCUGUUCCUGGCUACCAUUUCUCCAUGGCGGGCCUGACUAGGUUUGCUCUGGAAUUAGUCACAGAAAAGGGCCAUACAUUUGCCGAAGAGCUUCAGAAACAACAGAGGAUUGAGCAUCA
B4: chr11:59829272:59829545:-|three_prime_utr|ENSG00000134812|control|control|control (ssRNA)
RNA: GGGAGUUCUACAGUCCGACGAUCAAAAAGCGAAUGCCUGUGAUGCUACCAUAUUCCUGGUAAAAACAUGGAGAACCACUAUGUAGAAUAAAAAUGCAAAGUUCACUGGAGUCUCAACAUCUAUGACUCAUGAAAAUAAAAUUUCAACAGAGGAUUGAGCAUCA
B5: chr1:150220393:150220494:-|3pUTR|ENSG00000143401|msi1_unk|FALSE|overlapping (ssRNA)
RNA: GGGAGUUCUACAGUCCGACGAUCAUUGUAUGUAGAGAAAAAUUUUCAUUGACUCCCAUUGUGGAAUUCCCUAGCAAUUUAUUUAGACUUAAUUUUUUAAAUUCAAGCUUACUGUAUUAGUCAUUUUUAGCCCAUAAUUAAAACCAACAGAGGAUUGAGCAUCA
B6: ENSG00000107863:be:win_1851|CDS|ENSG00000107863|bound_else_gene|NA|bound_elsewhere_windowed (ssRNA)
RNA: GGGAGUUCUACAGUCCGACGAUCUCUUGUGAAAGUCCGAAGUAAUUCUCUGAAAGCUCCUUCCACGCAUGUCACAAAACCAUCAUUUAGCCAGAAAUCAUUUGUUUCUAUCAAAGACCAAAGACCAGUAAAUCACUUGCAUCACAACAGAGGAUUGAGCAUCA
B7: chr4:138171397:138171528:-|3pUTR|ENSG00000151012|msi1|total|mutant (ssRNA)
RNA: GGGAGUUCUACAGUCCGACGAUCAUUAUGGCAAAGAGGAGAGAAAGAAAUUUAUUUUACAUUGACAUUGCAUUGCUUCCCCUCCGAUACCAAUUCCGAUAACAAACACUCAUGCUUUAAUGGAUUAUACCCAGAGCACUUUGACAACAGAGGAUUGAGCAUCA
B8: chr1:150647640:150647741:-|3pUTR|ENSG00000143457|unk|FALSE|unique (ssRNA)
RNA: GGGAGUUCUACAGUCCGACGAUCAGAUUCAAUUACCUGGAUGUCAAAGUCCUAGAGCCAGAAAUAUAUUCUCUCAUCCCUCUUAGCAUUCUCUUGCUCCCUCAUUCACUAGGGCAAAUGUCUAAAUGAAGAAAAGUCUCUCUCCAACAGAGGAUUGAGCAUCA
B9: chr3:120327094:120327202:-|3pUTR|ENSG00000163428|unk|total|mutant (ssRNA)
RNA: GGGAGUUCUACAGUCCGACGAUCGAAGAGAAGUCACCAAACACCCCGGGACAGUCCCCGGCCCCGAAAGCCCUUUAAAGUAACCGUGAAUUGUUUUAAAAUUAAGUUAUUGAGUGGCCUACUGACUACCAUCCAAAAACCUUUCAACAGAGGAUUGAGCAUCA
B10: chr12:13219749:13219850:+|3pUTR|ENSG00000134531|unk|FALSE|unique (ssRNA)
RNA: GGGAGUUCUACAGUCCGACGAUCACAACAGUGGAUGGGGAGGAAGAACAGACUUUUGAGCUCUUCCCAAUAUAGGAAUGUGUUAGUUCUAAAAAUUUUCUUAAGUUGUUUGCUUGGAACUCAGAGUAUAUUUUUCCAUACGAACAACAGAGGAUUGAGCAUCA
B11: ENSG00000170312:stop:overlap|stop_codon|ENSG00000170312|stop_codon|NA|stop_codon (ssRNA)
RNA: GGGAGUUCUACAGUCCGACGAUCGCAAAAUGGCACUGAAUCAUCCAUAUUUUAAUGAUUUGGACAAUCAGAUUAAGAAGAUGUAGCUUUCUGACAAAAAGUUUCCAUAUGUUAUAUCAACAGAUAGUUGUGUUUUUAUUGUUACAACAGAGGAUUGAGCAUCA
B12: ENSG00000070961:be:win_5701|3pUTR|ENSG00000070961|bound_else_gene|NA|bound_elsewhere_windowed (ssRNA)
RNA: GGGAGUUCUACAGUCCGACGAUCCAUUUACCCUAAAUAAGGGUGGUGGACUAUCUUGAAGAACCCUUUCAACUCUAAAAAUUGACCCUAUCAACUGGAGAGCCCACAAGGCAUAGGGAAUAGAGAAAAGGGAAAUGUUUUCAGCAACAGAGGAUUGAGCAUCA
B13: chr7:115017934:115018035:+|3pUTR|ENSG00000135272|unk|FALSE|unique (ssRNA)
RNA: GGGAGUUCUACAGUCCGACGAUCUGAGAUGAAACGUAGUUUCUAGUUAUAUCAUUACUUAAAGGGCUUAAAAAGAAAAAACUUAGCAAACUUUUGAAUCUUUCUUUUAUUGCUAUUUACACAUACAUACACACAUACAAAACCCAACAGAGGAUUGAGCAUCA
B14: ENSG00000136451:be:win_101|CDS|ENSG00000136451|bound_else_gene|NA|bound_elsewhere_windowed (ssRNA)
RNA: GGGAGUUCUACAGUCCGACGAUCCCGUGGAGCCCCCUGAUCAGAAACCAUUGCUUCCAAUACCAAUAACUCAGAAACCUCAGGGUGCACCAGAAACAUUAAAGGAUGCCAUUGGGAUUAAAAAAGAAAAACCCAAAACUUCAUCAACAGAGGAUUGAGCAUCA

Each binder was assayed against T1, UNK ZnF1-6 (called full-length) (assay: nsRBNS (natural sequence RNA bind-n-seq); RBNS binding buffer (assumed for nsRBNS): 25 mM Tris pH 7.5, 150 mM KCl, 3 mM MgCl2, 0.01% Triton X-100, 500 ug/ml BSA, 20 U/ml SUPERase-In, 4 C; UNK is unkempt and MSI1 is Musashi-1; names of the RNAs are library labels; protein concentration not given here; high values mean tight binding).
Binder B1 has a binding signal of 1.22 enrichment R.
B2 was tested, and the binding signal was 0.644 enrichment R.
With B3 the binding signal was 2.64 enrichment R.
In the case of B4, the binding signal is reported as 0.443 enrichment R.
B5 gave a binding signal of 228 enrichment R.
Binder B6 has a binding signal of 0.592 enrichment R.
Work on B7 yielded a binding signal of 0.489 enrichment R.
B8 was tested, and the binding signal was 0.623 enrichment R.
B9 gave a binding signal of 0.574 enrichment R.
B10 was tested, and the binding signal was 5.89 enrichment R.
B11 showed a binding signal of 0.706 enrichment R.
For B12, the binding signal was 0.304 enrichment R.
Binder B13 has a binding signal of 5.81 enrichment R.
Binder B14 has a binding signal of 0.513 enrichment R.
